Assay results taken from EPA's CvTdb concentration-time database.
This continues a long series; more values of the same kind are listed elsewhere.

Columns and labels:
Assay in all cases: concentration in plasma after dosing
Rat [1] = conditions: dosed: Perfluorodecanoic acid, 10 mg/kg, oral, Male, Harlan Sprague Dawley
Rat [2] = conditions: dosed: Perfluorodecanoic acid, 20 mg/kg, oral, Male, Harlan Sprague Dawley
Rat [3] = conditions: dosed: Perfluorodecanoic acid, 20 mg/kg, oral, Male, Harlan Sprague Dawley; remark: listed apart in the source
Rat [4] = conditions: 1 h; dosed: Perfluorodecanoic acid; 10 mg/kg; oral; Female; Harlan Sprague Dawley
Rat [5] = conditions: dosed: Perfluorodecanoic acid, 2 mg/kg, oral, Male, Harlan Sprague Dawley
Rat [6] = conditions: dosed: Perfluorodecanoic acid, 20 mg/kg, oral, Male, Harlan Sprague Dawley; remark: listed apart in the source
Rat [7] = conditions: 1848 h; dosed: Perfluorooctane Sulfonate; 20 mg/kg; oral; Male; Harlan Sprague Dawley
Rat [8] = conditions: 3360 h; dosed: Perfluorooctane Sulfonate; 2 mg/kg; oral; Female; Harlan Sprague Dawley
Rat [9] = conditions: dosed: Perfluorooctane Sulfonate, 20 mg/kg, oral, Female, F344
Rat [10] = conditions: 3360 h; dosed: Perfluorooctane Sulfonate; 20 mg/kg; oral; Male; Harlan Sprague Dawley
Rat [11] = conditions: dosed: Perfluorooctane Sulfonate, 20 mg/kg, oral, Male, Harlan Sprague Dawley
Rat [12] = conditions: 96 h; dosed: Perfluorooctanoic acid; 80 mg/kg; oral; Female; Harlan Sprague Dawley
Rat [13] = conditions: 528 h; dosed: Perfluorooctanoic acid; 12 mg/kg; oral; Male; Harlan Sprague Dawley
Rat [14] = conditions: dosed: Fluorotelomer alcohol 8+2, 24 mg/kg, oral, Male, Harlan Sprague Dawley
Rat [15] = conditions: dosed: Perfluorooctanoic acid, 6 mg/kg, iv, Male, F344
Rat [16] = conditions: 192 h; dosed: Perfluorooctanoic acid; 12 mg/kg; oral; Male; Harlan Sprague Dawley
Rat [17] = conditions: dosed: Fluorotelomer alcohol 8+2, 40 mg/kg, oral, Female, Harlan Sprague Dawley
Rat [18] = conditions: dosed: Perfluorooctanoic acid, 40 mg/kg, oral, Male, Harlan Sprague Dawley
Rat [19] = conditions: 3 h; dosed: Fluorotelomer alcohol 8+2; 24 mg/kg; oral; Male; Harlan Sprague Dawley
Rat [20] = conditions: 1200 h; dosed: Perfluorooctanoic acid; 12 mg/kg; oral; Male; Harlan Sprague Dawley
Rat [21] = conditions: 6 h; dosed: Fluorotelomer alcohol 8+2; 80 mg/kg; oral; Female; Harlan Sprague Dawley
Rat [22] = conditions: dosed: Fluorotelomer alcohol 8+2, 24 mg/kg, oral, Male, Harlan Sprague Dawley; remark: listed apart in the source
Rat [23] = conditions: dosed: Fluorotelomer alcohol 8+2, 48 mg/kg, oral, Male, Harlan Sprague Dawley
Rat [24] = conditions: dosed: Perfluorooctanoic acid, 48 mg/kg, oral, Male, Harlan Sprague Dawley
Rat [25] = conditions: dosed: Fluorotelomer alcohol 8+2, 80 mg/kg, oral, Female, Harlan Sprague Dawley
Rat [26] = conditions: dosed: Perfluorooctanoic acid, 6 mg/kg, iv, Male, F344; remark: listed apart in the source
Rat [27] = conditions: dosed: Perfluorooctanoic acid, 40 mg/kg, oral, Male, Harlan Sprague Dawley; remark: listed apart in the source
Rat [28] = conditions: dosed: Perfluorooctanoic acid, 6 mg/kg, oral, Male, Harlan Sprague Dawley
Rat [29] = conditions: 9 h; dosed: Fluorotelomer alcohol 8+2; 24 mg/kg; oral; Male; Harlan Sprague Dawley
Rat [30] = conditions: 3 h; dosed: Fluorotelomer alcohol 8+2; 40 mg/kg; oral; Female; Harlan Sprague Dawley
Rat [31] = conditions: 6 h; dosed: Perfluorooctanoic acid; 12 mg/kg; oral; Male; Harlan Sprague Dawley
Rat [32] = conditions: 48 h; dosed: Fluorotelomer alcohol 8+2; 160 mg/kg; oral; Female; Harlan Sprague Dawley
Rat [33] = conditions: dosed: Perfluorooctanoic acid, 48 mg/kg, oral, Male, Harlan Sprague Dawley; remark: listed apart in the source
Rat [34] = conditions: 24 h; dosed: Perfluorooctanoic acid; 80 mg/kg; oral; Female; Harlan Sprague Dawley

O=C(O)C(F)(F)C(F)(F)C(F)(F)C(F)(F)C(F)(F)C(F)(F)C(F)(F)C(F)(F)C(F)(F)F [Perfluorodecanoic acid]
Conditions	concentration in plasma [ng/mL]
Rat [1], 12 h	46500
Rat [1], 864 h	11300
Rat [2], 12 h	83900
Rat [2], 1200 h	12800
Rat [3], 0.5 h	19600
Rat [3], 24 h	82800
Rat [3], 1848 h	11000
Rat [5], 2 h	6970
Rat [5], 528 h	5080
Rat [5], 3360 h	827
Rat [6], 2 h	48900
Rat [6], 528 h	24000
Rat [6], 3360 h	3560

Conditions	concentration in plasma [ng/mL]
Rat [4]	25100

O=S(=O)([O-])C(F)(F)C(F)(F)C(F)(F)C(F)(F)C(F)(F)C(F)(F)C(F)(F)C(F)(F)F [Perfluorooctane Sulfonate]
Conditions	concentration in plasma [ng/mL]
Rat [7]	13300
Rat [8]	393
Rat [10]	9590

concentration in plasma [ng/mL]
Conditions	1 h	5 min	192 h	2520 h
Rat [9]	–	924	73700	11400
Rat [11]	43900	–	67200	11200

O=C(O)C(F)(F)C(F)(F)C(F)(F)C(F)(F)C(F)(F)C(F)(F)C(F)(F)F [Perfluorooctanoic acid]
Conditions	concentration in plasma
Rat [12]	285 ng/mL
Rat [13]	17200 ng/mL
Rat [16]	40000 ng/mL
Rat [19]	827 ng/mL
Rat [20]	2990 ng/mL
Rat [21]	1820 ng/mL
Rat [29]	925 ng/mL
Rat [30]	708 ng/mL
Rat [31]	79.8 µg/mL
Rat [32]	78.2 ng/mL
Rat [34]	8720 ng/mL

Conditions	concentration in plasma
Rat [14], 0.75 h	230 ng/mL
Rat [14], 48 h	937 ng/mL
Rat [15], 3 h	41900 ng/mL
Rat [15], 5 min	57300 ng/mL
Rat [15], 528 h	5290 ng/mL
Rat [17], 1 h	649 ng/mL
Rat [17], 24 h	76 ng/mL
Rat [18], 3 h	125 µg/mL
Rat [18], 24 h	2.02 µg/mL
Rat [22], 0.75 h	135 ng/mL
Rat [22], 48 h	884 ng/mL
Rat [23], 1 h	409 ng/mL
Rat [23], 24 h	1590 ng/mL
Rat [24], 6 h	293 µg/mL
Rat [24], 192 h	84.4 µg/mL
Rat [25], 0.75 h	741 ng/mL
Rat [25], 48 h	66.3 ng/mL
Rat [26], 5 min	71900 ng/mL
Rat [26], 6 h	47800 ng/mL
Rat [26], 528 h	6460 ng/mL
Rat [27], 6 h	134 µg/mL
Rat [27], 48 h	0.166 µg/mL
Rat [28], 3 h	32700 ng/mL
Rat [28], 192 h	19900 ng/mL
Rat [28], 1200 h	2000 ng/mL
Rat [33], 0.25 h	14100 ng/mL
Rat [33], 6 h	272000 ng/mL
Rat [33], 528 h	41400 ng/mL
